In all, about 48,000 compounds went through this assay and about 1,200 (2.5%) were called active. Another 2% or so got no clear call; they are omitted.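 The calls were made as follows: active = activation of at least 60% and not above a set upper limit (about 1 call in 100 departs from these limits); inconclusive = activation of 40% to 60%, or above that upper limit; inactive = activation under 40%.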 The list shows a part of the results.
target: Probable G-protein coupled receptor 32 (Homo sapiens) (UniProt O75388); assay: qHTS for Agonists of Human Resolvin D1 Receptor DRV1; conditions: CHO-K1 GPR32 beta-arrestin PathHunter luminescence, 90 min; at 76.9 µM; active compounds read high; zero percent set by DMSO-only wells; also: 0% is about no effect
UniProt O75388, sequence (O75388 whole entry, looked up): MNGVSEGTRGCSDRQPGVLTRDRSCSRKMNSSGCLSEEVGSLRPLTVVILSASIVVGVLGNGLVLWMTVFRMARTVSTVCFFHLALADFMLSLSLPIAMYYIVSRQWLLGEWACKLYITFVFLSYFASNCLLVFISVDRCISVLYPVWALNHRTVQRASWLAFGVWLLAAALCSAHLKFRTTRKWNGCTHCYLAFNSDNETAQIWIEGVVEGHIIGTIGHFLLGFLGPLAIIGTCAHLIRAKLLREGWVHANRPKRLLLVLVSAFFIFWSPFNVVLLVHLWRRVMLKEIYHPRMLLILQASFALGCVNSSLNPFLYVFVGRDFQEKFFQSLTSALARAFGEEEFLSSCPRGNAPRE
Summary of the method: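 CHO-K1 cells stably expressing ProLink-tagged GPR32 and Enzyme Activator-tagged beta-arrestin were seeded at 2,500 cells/well overnight, exposed to compounds for 90 min at 37 °C, then read by beta-Gal complementation chemiluminescence after 1 h detection reagent.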

activation, inactive:
CCC(=O)N1CCc2cc(Br)cc(S(=O)(=O)NCc3ccc(Cl)cc3)c21 19.3%
Cc1cccc(N2C(=O)CSC23C(=O)N(Cc2cccc(C(F)(F)F)c2)c2ccccc23)c1 (stereo not drawn) -4.93%
CSc1nc2sc3c(c2c(=O)n1-c1ccccc1C)CCCC3 -15.5%
C=Cc1ccc(CSc2nc(-c3ccccc3Cl)nc3c2Cc2c(CO)cnc(C)c2O3)cc1 15%
Cc1nc(N2CCCC2)c2c(C(=O)N3CCN(c4cccc(Cl)c4)CC3)c(C)oc2n1 -18.1%
COc1ccc(N2CCN(C(=O)c3ccc(CS(=O)(=O)c4ccc(Br)cc4)o3)CC2)cc1 4.99%
Cc1ccc(N2CC(C)Cn3c2nc2c3c(=O)n(CC(=O)O)c(=O)n2C)cc1 (stereo not drawn) -0.544%
CCN(c1ccccc1)c1nnc(NC(=O)Nc2cccc(Br)c2)s1 1.6%
Cc1cc(C)cc(-n2ccn(CC(=O)Nc3ccccc3C(F)(F)F)c(=O)c2=O)c1 -17.3%
O=C1CC(c2nc3ccccc3n2CCCOc2ccccc2)CN1c1ccc(F)cc1 (stereo not drawn) 8.97%
CN(C)CCNC(=O)CCCN1C(=O)c2cccnc2Oc2ccc(Cl)cc21 1.15%
CCN(c1ccc(OC)cc1)S(=O)(=O)c1nnc(NC(=O)c2ccccc2Cl)s1 -4.97%
COCCCNC(=O)CSc1c2c(nc3ccc(Cl)cc13)CCCC2 -13%
Cc1ccc(CNC(=O)c2ccc(CSCc3ccc(C)cc3)o2)cc1 -9.51%
CCOc1ccc(C2c3c(oc4ccc(C)cc4c3=O)C(=O)N2Cc2ccc3c(c2)OCO3)cc1OC (stereo not drawn) 2.96%
Cc1c(C)n(Cc2ccc(Cl)cc2)c2ccc(C(=O)NCCc3ccc(S(N)(=O)=O)cc3)cc12 -11.1%
COCCCNC(=O)c1cc2c(=O)n3cccc(C)c3nc2s1 6.91%
Nc1c(-c2nc(-c3ccc(Cl)cc3)cs2)c2ccccn2c1C(=O)c1ccc2c(c1)OCO2 -24.3%
CCCCc1nc2ccccc2n2c(-c3ccc(C)cc3)c3c(=O)n(C)c(=O)n(C)c3c12 1.82%
CO[C@@H]1[C@@H](OC(N)=O)[C@@H](O)[C@H](Oc2ccc3c(O)c(NC(=O)c4ccc(O)c(CC=C(C)C)c4)c(=O)oc3c2C)OC1(C)C 5.32%
O=S(=O)(Nc1cccc(-c2ccc(N3CCCCC3)nn2)c1)c1cccc(F)c1 -1.19%
CC1CCN(S(=O)(=O)c2ccc3c(c2)N(CC(=O)NC(C)c2ccccc2)C(=O)CO3)CC1 (stereo not drawn) -23.6%
COc1ccc(C2C(=O)N(C3CCC(C)CC3)CC(=O)N2CCc2ccccc2)cc1OC (stereo not drawn) -13.7%
CSc1cccc(NC(=O)CN(c2ccccc2)S(=O)(=O)N(C)C)c1 0.996%
Cc1cc(N2CCCCC2)nc2ccc(NC(=O)c3cccc(F)c3)cc12 -9.81%
Cc1ccc(C(=O)N2CCc3cc(CNC(=O)COc4ccccc4)ccc32)cc1 -40%
CCCc1nnc(NC(=O)Cc2coc3cc(C)cc(C)c23)s1 7.61%
O=S(=O)(c1cccc(C(F)(F)F)c1)n1c(/C=C/c2ccccc2)nc2ccccc21 -6.8%
O=C(Cn1c(=O)n(-c2ccccc2)c(=O)c2sc3ccccc3c21)N1CCCC1 17.8%
CCOc1ccc(Nc2nc3ccccc3n3c(CC)nnc23)cc1 -10.2%
CCCN1CCN(CCCNC(=O)c2cnn(-c3ccc(F)cc3)c2-n2cccc2)CC1 -5.54%
CC(C)OCCCNC(=O)CCCn1c(SCC(=O)c2ccc(F)cc2)nc2c(sc3ccccc32)c1=O -15%
O=[N+]([O-])c1cc(-c2nc(-c3cccnc3)no2)ccc1NCc1ccccc1 -6.97%
CC(C)c1ccc(NC(=O)CN2C(=O)COc3ccc(S(=O)(=O)Nc4ccccc4)cc32)cc1 -1.58%
Cc1ccc2oc(=O)c3cnn(CC(=O)Nc4cccc(C(F)(F)F)c4)c3c2c1 -6.81%
O=C(NCC(c1ccco1)S(=O)(=O)c1ccc(Cl)cc1)c1ccccc1F (stereo not drawn) -6.33%
COc1ccc(CCNC(=O)c2nnc(Cc3ccc(Cl)cc3)o2)cc1OC 7.49%
O=Nc1c(-c2c(O)[nH]c3cc(Br)ccc23)[nH]c2ccccc12 -39.8%
COc1ccc(-c2nn3c(=O)cc(CN4CCN(C(=O)Nc5ccc(C)c(Cl)c5)CC4)nc3s2)cc1 -9.24%
CCC(C)NC(=O)Cn1c(=O)n(-c2ccc(C)cc2)c(=O)c2ccccc21 (stereo not drawn) -24.9%
CCOC(=O)Cn1c(=O)cc(-c2ccccc2)c2c(C)nn(C)c21 14.8%
CCc1ccc(-n2nc(CO)c(C(=O)NCc3ccccn3)n2)cc1 1.38%
Cc1ccccc1CSc1nc2nc(C)c(Cc3ccccc3)c(C)n2n1 -21.7%
COc1ccc(OC)c(CCNC(=O)c2ccc(CS(=O)Cc3cccc(Cl)c3)o2)c1 (stereo not drawn) -17%
CCc1ccccc1N(CC)C(=O)c1cc2c(s1)-c1ccccc1OC2 5.12%
Cc1oc2ncnc(N3CCCCC3)c2c1C(=O)NCC1CCN(Cc2ccc(F)cc2)CC1 -2.55%
Cc1nc(-c2ccccc2)sc1-c1ccc(SCC(=O)Nc2ccc(F)cc2F)nn1 0.331%
COCCNc1nc(NCc2ccccc2OC)c2cnn(C)c2n1 1.94%
CC(Sc1oc(-c2ccco2)nc1S(=O)(=O)c1ccc(Br)cc1)c1ccccc1 (stereo not drawn) -16.2%
COc1ccc(-n2ncc(C(=O)N3CCN(c4ccccn4)CC3)c2C2CCN(C(=O)OC(C)(C)C)CC2)cc1 -3.65%
CCC(CC)c1nn2c(=O)cc(COc3ccc(NC(=O)c4ccc(Cl)cc4)cc3)nc2s1 4.99%
CCCCNc1nc(Oc2ccc(=O)n(-c3ccccc3)n2)nc(N(C)C)n1 2.59%
CN(C(=O)c1nn(C)c2c1COc1ccccc1-2)c1cccc(C(F)(F)F)c1 -12.1%
Cc1nnc(N2CCN(c3ccccc3F)CC2)c2c1nnn2Cc1ccc(F)cc1 -3.34%
CCOc1ccccc1NC(=O)C(NS(=O)(=O)c1cccc2nsnc12)c1ccccc1 (stereo not drawn) -27.9%
CCOC(=O)c1cn(CC(=O)Nc2cccc(Cl)c2C)nn1 -2.28%
COc1ccc(N2CCN(CCCNC(=O)c3cnn(-c4ccc(F)cc4)c3-n3cccc3)CC2)cc1 10.8%
COc1ccc(N2CCN(c3nc(-c4ccccc4F)nc4ccccc34)CC2)cc1 -24.2%
O=C(CN(c1cccc(Br)c1)S(=O)(=O)c1ccccc1)N1CCc2ccccc2C1 -12.3%
COCCNC(=O)c1c(NC(=O)Cc2coc3cc(C)ccc23)sc2c1CCCC2 -21.3%
CCC(C)NC(=O)c1ccc2c(c1)N(Cc1cccc(Cl)c1)C(=O)c1ccccc1S2=O (stereo not drawn) -38.5%
Nc1nc(-c2ccccc2)c(Br)c(=O)[nH]1 9.77%
Cc1nc(-c2ccccc2)sc1CCNC(=O)c1ccco1 8.37%
CCc1ccccc1NC(=O)CSc1ncc2c(n1)-c1ccccc1N(Cc1ccc(C)cc1)S2(=O)=O -20.2%
CCN(C(=O)Cn1ncc2c1-c1cc(C)ccc1OC2)c1cc(Cl)ccc1OC -3.99%
COc1ccccc1CNS(=O)(=O)c1c(C)nc2sccn2c1=O -5.44%
CCN(Cc1ccccc1)C(=O)CCNS(=O)(=O)c1ccc2c(c1)CC(C)N2C(C)=O (stereo not drawn) -1.45%
Cc1ccc(S(=O)(=O)c2cn(Cc3ccccc3)c3cc(N4CCCC4)c(F)cc3c2=O)cc1C -0.343%
COc1cccc(CNC(=O)CCc2c(C)c3cc4c(C)c(C)oc4cc3oc2=O)c1 -14.9%
CCOC(=O)c1ccccc1NS(=O)(=O)c1c(-c2ccc(C)cc2)csc1C(=O)OC -3.59%
CC(C)(C)C(=O)Nc1ccc2nc(SCC(=O)N3CCCC3)sc2c1 -3.14%
O=C(Nc1ccc(NC(=O)c2cccs2)cc1)c1ccc(Br)cc1 -10.5%
CC(C)Oc1ccc(CNC(=O)c2ccc(NC(=O)c3nsc4ccccc34)cc2)cc1 -15.6%
O=C(OCc1ccccc1Cl)c1ccc(-c2nnn(Cc3ccccc3)n2)cc1 -8.87%
COc1ccc(/C=C(/C#N)c2nc(-c3ccc(-c4ccccc4)cc3)cs2)cc1 4.88%
CCN(CCCNC(=O)c1cc2cc3cc(C)ccc3nc2s1)c1cccc(C)c1 -18.6%
NCC1CCC(C(=O)Oc2ccc(CCC(=O)O)cc2)CC1 (stereo not drawn) -31.3%
Cc1ccc(C)c(NC(=O)C(=O)NCCc2csc(-c3ccc(C(F)(F)F)cc3)n2)c1 -12.9%
Brc1ccc(-c2cc3c(N4CCN(c5ccccc5)CC4)nccn3n2)cc1 -6.87%
Cc1ccccc1NC(=O)c1sc2nc(-c3ccncc3)ccc2c1N 33.2%
O=C(O)c1[nH]n(-c2ccc(S(=O)(=O)O)cc2)c(=O)c1N=Nc1ccc(S(=O)(=O)O)cc1 -68.5%
O=C(CC1C(=O)N(c2ccc(F)cc2)C(=O)N1Cc1cccnc1)Nc1ccc(F)cc1 (stereo not drawn) -6.07%

activation, active:
CCN(CC)CCOc1ccc(/C(=C(\Cl)c2ccccc2)c2ccccc2)cc1 91%
